{"source": "the supplement of paper PMC9135407", "tested_on": "primary human hepatic stellate cells (donor 1)", "test": "scaled lipid accumulation score (0 = DMSO-like, 1 = nortriptyline-like); higher = stronger HSC inactivation (lipid re-accumulation), active = hit call of the paper", "settings": "48 h", "key": {"[1]": {"settings": "library stock concentration: 3.33 mM"}, "[2]": {"settings": "library stock concentration: 10 mM"}, "[3]": {"settings": "library stock concentration: 1 mM"}}, "note": "Values joined by “and” are separate entries in the source; they are usually repeats but may differ in a detail not shown here. Equal entries are not always repeated. Structures can show the parent of a compound that is named as a salt. In all, about 5,800 compounds went through this assay and about 620 (11%) showed activity.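 How the source made its calls: active = score above a cut-off or among the top three wells of a plate; in these data no inactive exceeds 0.85.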 Only a part is listed here, and it is no random draw.", "data": [{"smiles": "CO[C@H]1C[C@@H]2CC[C@@H](C)[C@@](O)(O2)C(=O)C(=O)N2CCCC[C@H]2C(=O)O[C@H]([C@H](C)C[C@@H]2CC[C@@H](OC(=O)C(C)(CO)CO)[C@H](OC)C2)CC(=O)[C@H](C)/C=C(\\C)[C@@H](O)[C@@H](OC)C(=O)[C@H](C)C[C@H](C)/C=C/C=C/C=C/1C", "values": [{"measurement": "scaled lipid accumulation score", "setting": "[1]", "result": "inactive: 0.032"}, {"measurement": "scaled lipid accumulation score", "setting": "[2]", "result": "inactive: 0.094"}]}, {"smiles": "CN1CCCN=C1/C=C/c1cccs1", "note": "[Pyrantel pamoate]", "values": [{"measurement": "scaled lipid accumulation score", "setting": "[2]", "result": "inactive: ≤ 0"}]}, {"smiles": "CN1CCCN=C1/C=C/c1cccs1", "note": "[Pyrantel tartrate]", "values": [{"measurement": "scaled lipid accumulation score", "result": "inactive: 0.023"}]}, {"smiles": "CN1C(C(=O)Nc2ccccn2)=C(O)c2sc(Cl)cc2S1(=O)=O", "values": [{"measurement": "scaled lipid accumulation score", "setting": "[2]", "result": "inactive: ≤ 0"}]}, {"smiles": "CN1C(C(=O)Nc2ccccn2)=C(O)c2sc(Cl)cc2S1(=O)=O", "note": "[Lornoxicam]", "values": [{"measurement": "scaled lipid accumulation score", "setting": "[1]", "result": "inactive: ≤ 0"}, {"measurement": "scaled lipid accumulation score", "setting": "[2]", "result": "inactive: ≤ 0"}]}, {"smiles": "CC12CC3CC(C)(C1)CC(N)(C3)C2", "values": [{"measurement": "scaled lipid accumulation score", "setting": "[2]", "result": "active: 0.869"}]}, {"smiles": "COc1ccc(-c2cc(=O)c3c(OC)c(OC)c(OC)c(OC)c3o2)cc1", "note": "[Tangeretin]", "values": [{"measurement": "scaled lipid accumulation score", "setting": "[1]", "result": "inactive: 0.102"}, {"measurement": "scaled lipid accumulation score", "setting": "[2]", "result": "inactive: ≤ 0"}]}, {"smiles": "O=C(O)c1ccc(C=C2SC(=S)N(c3cccc(C(F)(F)F)c3)C2=O)cc1", "values": [{"measurement": "scaled lipid accumulation score", "setting": "[1]", "result": "inactive: ≤ -0.009"}, {"measurement": "scaled lipid accumulation score", "setting": "[2]", "result": "inactive: 0.168 and inactive: 0.026"}]}, {"smiles": "Nc1ccc(S(=O)(=O)O)cc1.Nc1ccc(S(=O)(=O)O)cc1.[Zn]", "note": "[Sulfanilate zinc]", "values": [{"measurement": "scaled lipid accumulation score", "setting": "library stock concentration: 4.9 mM", "result": "inactive: ≤ 0"}]}, {"smiles": "C#C[C@]1(O)CC[C@H]2[C@@H]3CCC4=Cc5oncc5C[C@]4(C)[C@H]3CC[C@@]21C", "values": [{"measurement": "scaled lipid accumulation score", "setting": "[2]", "result": "inactive: 0.336"}]}, {"smiles": "C#C[C@]1(O)CC[C@H]2[C@@H]3CCC4=Cc5oncc5C[C@]4(C)[C@H]3CC[C@@]21C", "note": "[Danazol]", "values": [{"measurement": "scaled lipid accumulation score", "result": "inactive: 0.447"}, {"measurement": "scaled lipid accumulation score", "setting": "library stock concentration: 5.9 mM", "result": "inactive: 0.204 and inactive: 0.103"}, {"measurement": "scaled lipid accumulation score", "setting": "[2]", "result": "inactive: ≤ 0"}]}, {"smiles": "CC(C)c1nc(CN(C)C(=O)N[C@@H](CCN2CCOCC2)C(=O)N[C@H](CC[C@H](Cc2ccccc2)NC(=O)OCc2cncs2)Cc2ccccc2)cs1", "note": "[Cobicistat (GS-9350)]", "values": [{"measurement": "scaled lipid accumulation score", "setting": "[1]", "result": "inactive: 0.21"}, {"measurement": "scaled lipid accumulation score", "setting": "[2]", "result": "inactive: 0.044"}]}, {"smiles": "CCNC(=O)CCC/C=C\\C[C@@H]1[C@@H](CC[C@@H](O)CCc2ccccc2)[C@H](O)C[C@@H]1O", "note": "[Latanoprost ethyl amide]", "values": [{"measurement": "scaled lipid accumulation score", "setting": "[3]", "result": "inactive: ≤ 0"}]}, {"smiles": "Cc1cccc(-c2nn3c(c2-c2ccnc4ccc(C(N)=O)cc24)CCC3)n1", "values": [{"measurement": "scaled lipid accumulation score", "setting": "[1]", "result": "inactive: 0.006"}, {"measurement": "scaled lipid accumulation score", "setting": "[2]", "result": "inactive: ≤ 0"}]}, {"smiles": "O=C(Nc1cccnc1)N1CCC(Cc2cccc(Oc3ccc(C(F)(F)F)cn3)c2)CC1", "values": [{"measurement": "scaled lipid accumulation score", "setting": "[1]", "result": "inactive: 0.029"}, {"measurement": "scaled lipid accumulation score", "setting": "[2]", "result": "inactive: 0.224"}]}, {"smiles": "CCOc1ccc(Cc2nccc3cc(OCC)c(OCC)cc23)cc1OCC", "note": "[Ethaverine hydrochloride]", "values": [{"measurement": "scaled lipid accumulation score", "result": "inactive: ≤ 0"}, {"measurement": "scaled lipid accumulation score", "setting": "[2]", "result": "inactive: ≤ 0"}]}, {"smiles": "CCCCCC(=O)CC[C@H]1[C@H](O)CC(=O)[C@@H]1C/C=C\\CCCC(=O)O", "note": "[13,14-dihydro-15-keto Prostaglandin E2]", "values": [{"measurement": "scaled lipid accumulation score", "setting": "[3]", "result": "inactive: ≤ 0"}]}, {"smiles": "Cc1cc(C)nc(NS(=O)(=O)c2ccc(NC(=S)NC(=O)COc3ccc(Br)cc3Cl)cc2)n1", "values": [{"measurement": "scaled lipid accumulation score", "setting": "[1]", "result": "inactive: ≤ -0.009"}, {"measurement": "scaled lipid accumulation score", "setting": "[2]", "result": "inactive: ≤ 0"}]}, {"smiles": "CCCCCCCC/C=C\\CCCCCCCC(=O)NCC", "note": "[Oleoyl Ethyl Amide]", "values": [{"measurement": "scaled lipid accumulation score", "setting": "[3]", "result": "inactive: ≤ 0"}]}, {"smiles": "CCCCc1oc2ccccc2c1C(=O)c1cc(I)c(OCCN(CC)CC)c(I)c1", "values": [{"measurement": "scaled lipid accumulation score", "setting": "library stock concentration: 7.3 mM", "result": "inactive: 0.281"}, {"measurement": "scaled lipid accumulation score", "setting": "library stock concentration: 9.5 mM", "result": "active: 1.34"}]}, {"smiles": "CCCCc1oc2ccccc2c1C(=O)c1cc(I)c(OCCN(CC)CC)c(I)c1", "note": "[Amiodarone]", "values": [{"measurement": "scaled lipid accumulation score", "setting": "library stock concentration: 3.1 mM", "result": "inactive: 0.438"}]}, {"smiles": "CCCCc1oc2ccccc2c1C(=O)c1cc(I)c(OCCN(CC)CC)c(I)c1", "note": "[Amiodarone HCl]", "values": [{"measurement": "scaled lipid accumulation score", "setting": "[1]", "result": "inactive: 0.394"}]}, {"smiles": "CCCCc1oc2ccccc2c1C(=O)c1cc(I)c(OCCN(CC)CC)c(I)c1", "note": "[Amiodarone hydrochloride]", "values": [{"measurement": "scaled lipid accumulation score", "result": "inactive: 0.445"}, {"measurement": "scaled lipid accumulation score", "setting": "library stock concentration: 2.9 mM", "result": "inactive: 0.417"}]}, {"smiles": "O=c1[nH]c(=O)n([C@H]2C[C@H](O)[C@@H](CO)O2)cc1I", "note": "[Idoxuridine]", "values": [{"measurement": "scaled lipid accumulation score", "result": "inactive: 0.038"}, {"measurement": "scaled lipid accumulation score", "setting": "[1]", "result": "inactive: 0.015"}, {"measurement": "scaled lipid accumulation score", "setting": "[2]", "result": "inactive: 0.006"}]}, {"smiles": "O=c1[nH]c(=O)n([C@H]2C[C@H](O)[C@@H](CO)O2)cc1I", "values": [{"measurement": "scaled lipid accumulation score", "setting": "[2]", "result": "inactive: ≤ 0"}]}, {"smiles": "N[C@@H](COP(=O)(O)O)C(=O)O", "note": "[O-Phospho-L-serine]", "values": [{"measurement": "scaled lipid accumulation score", "setting": "[2]", "result": "inactive: 0.167"}]}, {"smiles": "N[C@@H](COP(=O)(O)O)C(=O)O", "values": [{"measurement": "scaled lipid accumulation score", "setting": "[2]", "result": "inactive: ≤ 0"}]}, {"smiles": "Cc1cccc(N(C)C(=S)Oc2ccc3ccccc3c2)c1", "note": "[Tolnaftate]", "values": [{"measurement": "scaled lipid accumulation score", "result": "inactive: 0.12"}, {"measurement": "scaled lipid accumulation score", "setting": "[1]", "result": "inactive: 0.03"}, {"measurement": "scaled lipid accumulation score", "setting": "[2]", "result": "inactive: ≤ 0"}]}, {"smiles": "O=C(O)c1cc2cc(F)ccc2[nH]1", "note": "[5-Fluoroindole-2-carboxylic acid]", "values": [{"measurement": "scaled lipid accumulation score", "setting": "[2]", "result": "inactive: ≤ 0"}]}, {"smiles": "NC(C(=O)O)c1ccc(C(=O)O)c(C(=O)O)c1", "note": "(configuration not stated)", "values": [{"measurement": "scaled lipid accumulation score", "setting": "[2]", "result": "inactive: ≤ -0.006"}]}, {"smiles": "CC(C)N(CCC(=O)c1ccc2ccccc2c1)Cc1ccccc1.Cl", "values": [{"measurement": "scaled lipid accumulation score", "setting": "[2]", "result": "active: 0.966"}]}, {"smiles": "CN(C(=O)CCCOc1ccc2[nH]c(=O)ccc2c1)C1CCCCC1", "note": "[Cilostamide]", "values": [{"measurement": "scaled lipid accumulation score", "setting": "library stock concentration: 5.8 mM", "result": "inactive: ≤ 0"}, {"measurement": "scaled lipid accumulation score", "setting": "[2]", "result": "inactive: 0.154 and inactive: 0.019"}]}, {"smiles": "NNC(=O)c1ccncc1", "note": "[Isoniazid]", "values": [{"measurement": "scaled lipid accumulation score", "result": "inactive: 0.025"}, {"measurement": "scaled lipid accumulation score", "setting": "[1]", "result": "inactive: 0.054"}, {"measurement": "scaled lipid accumulation score", "setting": "[2]", "result": "inactive: ≤ 0"}]}, {"smiles": "CN1CCN(C(=O)c2nc3ccc(Cl)cc3[nH]2)CC1", "values": [{"measurement": "scaled lipid accumulation score", "setting": "[2]", "result": "inactive: 0.076"}]}, {"smiles": "COc1ccc(Br)cc1S(=O)(=O)NC(=O)/C=C/c1ccccc1Cc1ccc2ccccc2c1", "values": [{"measurement": "scaled lipid accumulation score", "setting": "[2]", "result": "inactive: 0.132 and inactive: 0.029"}]}, {"smiles": "CC1(C)C=C(CN2C/C(=C\\c3ccc(F)cc3)C(=O)/C(=C/c3ccc(F)cc3)C2)C(C)(C)N1O", "values": [{"measurement": "scaled lipid accumulation score", "setting": "[1]", "result": "inactive: 0.264"}, {"measurement": "scaled lipid accumulation score", "setting": "[2]", "result": "inactive: 0.694"}]}, {"smiles": "CCC(=O)OCC(=O)[C@@]1(OC(=O)CC)[C@@H](C)C[C@H]2[C@@H]3CCC4=CC(=O)C=C[C@]4(C)[C@@]3(F)[C@@H](O)C[C@@]21C", "note": "[Betamethasone 17,21-dipropionate]", "values": [{"measurement": "scaled lipid accumulation score", "setting": "library stock concentration: 4 mM", "result": "inactive: ≤ 0"}]}, {"smiles": "CC1(C)O[C@@H]2C[C@H]3[C@@H]4C[C@H](F)C5=CC(=O)CC[C@]5(C)[C@H]4[C@@H](O)C[C@]3(C)[C@]2(C(=O)CO)O1", "note": "[Flurandrenolide]", "values": [{"measurement": "scaled lipid accumulation score", "result": "inactive: ≤ 0"}, {"measurement": "scaled lipid accumulation score", "setting": "[2]", "result": "inactive: ≤ 0"}]}, {"smiles": "Cc1ccc(S(=O)(=O)OCC(=O)Nc2ccc(C(=O)O)c(O)c2)cc1", "values": [{"measurement": "scaled lipid accumulation score", "setting": "[1]", "result": "inactive: ≤ 0"}, {"measurement": "scaled lipid accumulation score", "setting": "[2]", "result": "inactive: ≤ 0"}]}]}
